# Reference: PubChem BioAssay AID540317 (National Center for Advancing Translational Sciences (NCATS), 2011)
# Where “and” joins values, the source holds several entries; their conditions need not be identical. Equal entries are not always repeated. Screen size: about 390,000 compounds; about 2,200 (0.56%) were called active. The shares of active, inactive and inconclusive entries below differ from those in the screen. Calls come from the whole dose curve; as a rule, active = well fitted inhibition curve with a large enough effect; inconclusive = small, poorly fitted or top-dose-only effect; inactive = no such curve, though single readings can be large or run the other way. A potency beside an inconclusive call is a rough fit, not a confirmed value.
# Target: Chromobox protein homolog 1 (Homo sapiens) (UniProt P83916)
# Experiment: HTS for Inhibitors of HP1-beta Chromodomain Interactions with Methylated Histone Tails; note: nearly all actives have a fitted effect of over 70% in size
# Settings: AlphaScreen HP1-beta / biotin-H3K9me3 peptide binding; series mostly up to 114 µM; activity change, negative = inhibition: at the top concentration
# Method in brief: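 Compound inhibition of the preformed complex between 50 nM HP1-beta and 50 nM biotinylated H3K9me3 peptide was read by AlphaScreen. Buffer was PBS pH 7.4 with 0.01% Tween-20. Incubations ran 30 min at room temperature, with 10 ug/mL donor/acceptor beads.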
# Potency is the fitted concentration of half-maximal effect; tags give direction and shape of the fitted curve.
# UniProt P83916, sequence (P83916 whole entry, looked up): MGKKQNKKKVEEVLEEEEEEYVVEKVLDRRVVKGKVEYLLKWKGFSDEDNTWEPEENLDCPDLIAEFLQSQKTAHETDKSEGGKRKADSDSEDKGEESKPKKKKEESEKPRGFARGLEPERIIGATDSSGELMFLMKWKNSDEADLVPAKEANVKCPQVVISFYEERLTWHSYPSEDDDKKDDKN
SMILES,Potency,"activity change, negative = inhibition"
CCC(=O)Nc1ccc2oc(-c3cccc(C)c3)nc2c1,"inconclusive: 8.91 µM [inhibitor, single point]",–
CCn1c2ccccc2c2nnc(N3CCN(c4cc(C)ccc4C)CC3)nc21,–,inactive: 20.6%
COc1cccc(N2CCN(Cc3ccco3)CC2)c1,"inconclusive: 39.8 µM [inhibitor, partial curve]",–
CCOC(=O)c1c(OCC)[nH]c2c1cc(O)c1ccccc12,"inconclusive: 22.4 µM [inhibitor, full curve, poor fit]",–
O=c1cc(CO)oc(C(Nc2cccc([N+](=O)[O-])c2)c2ccccn2)c1O (centres undefined),"inconclusive: 28.2 µM [inhibitor, partial curve, poor fit]",–
CCOC(=O)c1c(Nc2ccc(C)cc2)nnc(-c2ccccc2)c1-c1ccccc1,–,inactive: -17.9%
COc1ccc(CN2CCC(N3CC(C)OC(C)C3)CC2)c(OC)c1OC (centres undefined),"inconclusive: 14.1 µM [inhibitor, partial curve, poor fit]",–
Cc1ccccc1NCc1ccc([N+](=O)[O-])s1,"inconclusive: 70.8 µM [inhibitor, partial curve]",–
c1ccc2c(Nc3nc4c(s3)CCCC4)cccc2c1,"inconclusive: 79.4 µM [inhibitor, single point]",–
COc1cccc(-c2nc(N3CCN(c4ccccc4)CC3)c3ccccc3n2)c1O,"inconclusive: 7.94 µM [inhibitor, full curve, poor fit]",–
O=[N+]([O-])/C=C/c1cc2ccccc2[nH]1,–,inactive: 21.2%
COC(=O)CSc1nc2c(c(=O)n(C)c(=O)n2C)n1CCC(C)C,"inconclusive: 31.6 µM [inhibitor, single point]",–
CC1CN(c2ccc([N+](=O)[O-])c(NCCOc3ccc(Cl)cc3)c2)CC(C)N1 (centres undefined),"inconclusive: 22.4 µM [inhibitor, full curve]",–
COc1ccc(CN2CCN(Cc3cccc(F)c3)CC2)cc1OC,"inconclusive: 31.6 µM [inhibitor, partial curve]",–
O=C(Nc1ccccc1Cl)c1ccccc1Oc1ccc(C(F)(F)F)cc1[N+](=O)[O-],"inconclusive: 31.6 µM [inhibitor, partial curve, poor fit]",–
O=C(N/N=C/c1ccncc1)c1cccc(N/N=C/c2ccncc2)c1,–,inactive: -5.92%
CCOC(=O)c1nsnc1NCCSC(=N)N,–,inactive: 15.1%
Oc1c(C(c2ccccn2)N2CCC(Cc3ccccc3)CC2)cc(Cl)c2cccnc12 (centres undefined),"inconclusive: 28.2 µM [inhibitor, partial curve]",–
CCOC(=O)c1ccc(N/N=C/c2cc(Br)cc([N+](=O)[O-])c2O)cc1,"inconclusive: 12.6 µM [inhibitor, partial curve, poor fit]",–
COc1ccc(C(=O)N(Cc2ccc(N(C)C)cc2)Cc2ccco2)cc1Cl,"inconclusive: 20 µM [inhibitor, full curve]",–
COCCNCCOCCOc1ccc(Cl)c(C)c1,"inconclusive: 25.1 µM [inhibitor, full curve, poor fit]",–
CCOc1cccc(/C=N/N2C(=O)CSC2=S)c1O,"inconclusive: 50.1 µM [inhibitor, partial curve]",–
COc1ccc(C/C(C)=N/NC(=S)Nc2ccccc2F)cc1,"inconclusive: 12.6 µM [inhibitor, full curve]",–

SMILES,Potency,"activity change, negative = inhibition"
CCNC(=S)N(CCc1c(C)[nH]c2ccc(F)cc12)Cc1cccnc1,"inconclusive: 39.8 µM [inhibitor, single point]",–
COc1ccc(CN2CCNC(=O)C2CC(=O)NC2CCCCCC2)cc1C (centres undefined),–,inactive: 23.5%
CCc1ccccc1NC(=O)Cn1c(=O)n(CCCS(=O)(=O)C2CCCCC2)c(=O)c2ccccc21,–,inactive: 19.9%
O=C(Oc1cccc(C(=S)N2CCOCC2)c1)c1ccc([N+](=O)[O-])cc1[N+](=O)[O-],"inconclusive: 44.7 µM [inhibitor, partial curve]",–
Cc1cc(C)cc(OCc2nnc(SCC(=O)N3CCCCC3)o2)c1,–,inactive: 13.1%
CSc1ccc(NC(=O)C(C)N2CCN(C)CC2)cc1 (centres undefined),"inconclusive: 15.8 µM [inhibitor, full curve, poor fit]",–
Cc1ccc(/C=N/NC(=O)NC23CC4CC(CC(C4)C2)C3)o1,"inconclusive: 79.4 µM [inhibitor, single point]",–
CCCC(C)NCC(=O)Nc1ccccc1-c1ccccc1 (centres undefined),"inconclusive: 15.8 µM [inhibitor, full curve]",–
Cc1ccc(-n2c(C)cc(C(=O)COc3c(CO)cc(F)cc3CO)c2C)cc1C,"inconclusive: 70.8 µM [inhibitor, partial curve]",–
Cc1ccc2c(c1)C(=O)C(=O)N2Cc1ccc(F)cc1,"inconclusive: 31.6 µM [inhibitor, full curve]",–
O=C(CNCc1cccnc1)Nc1cc(C(F)(F)F)ccc1N1CCOCC1,"inconclusive: 15.8 µM [inhibitor, partial curve, poor fit]",–
O=C1C=C(N2CCCCC2)c2ccccc2C1=O,"inconclusive: 79.4 µM [inhibitor, single point]",–
O=C(Nc1ccc(Cl)c(Cl)c1)C1C2C=CC3(O2)C1C(=O)N(CCN1CCCCC1)C3C(=O)NC1CCCCC1 (centres undefined),–,inactive: 11.9%
Cc1ccc(CNc2oc(-c3ccco3)nc2C#N)cc1,"inconclusive: 50.1 µM [inhibitor, partial curve]",–
CCN1/C(=C/c2cc[n+](C)cc2)C=Cc2cc(C)ccc21,"inconclusive: 89.1 µM [inhibitor, single point]",–
O=C(O)C1CCN(Cc2oc(CO)cc(=O)c2O)C1 (centres undefined),–,inactive: 20.5%
CC(C)(C)C(=O)NC(=S)NNC(=O)c1sc2ccccc2c1Cl,"inconclusive: 39.8 µM [inhibitor, partial curve]",–
Cc1cc(Cc2ccc(N)c(C)c2)ccc1N,–,inactive: -18.1%
Fc1ccc(-[n+]2nc(Nc3ccccc3)sc2-c2c(Cl)cccc2Cl)cc1,"inconclusive: 35.5 µM [inhibitor, partial curve]",–
CC(C)Cn1c(-c2ccc(F)cc2)n[nH]c1=S,"inconclusive: 22.4 µM [inhibitor, full curve, poor fit]",–
CCN(CC)c1ccc(/C=C2\CCC(/C=C(\C#N)C(=O)Nc3ccccc3F)=C2N2CCOCC2)cc1,"inconclusive: 2.24 µM [inhibitor, full curve]",–
COc1cccc(NC(=O)CSc2nnc(COc3ccc(Cl)cc3)o2)c1,–,inactive: 21%
Cc1ccc(CC(=O)N(C)CC(=O)Nc2ccc(N3CCOCC3)cc2)cc1C,–,inactive: 23.4%

SMILES,Potency,"activity change, negative = inhibition"
COc1ccccc1N1CCN(CCCCOc2ccc(C)cc2C)CC1,"inconclusive: 11.2 µM [inhibitor, partial curve, poor fit]",–
c1coc(-c2nc(-c3ccco3)c(-c3ccco3)nc2-c2ccco2)c1,"inconclusive: 8.91 µM [inhibitor, full curve, poor fit] and inconclusive: 5.62 µM [inhibitor, full curve, poor fit]",–
O=C(O)CSC1=NC(=Nc2cccc(Cl)c2)C2(CCCCC2)N1c1ccccc1,"inconclusive: 25.1 µM [inhibitor, full curve, poor fit]",–
C=CCNC(=O)c1ccncc1,–,inactive: 18.7%
COc1cc(CNc2ccc3[nH]c(=O)[nH]c3c2)ccc1OCc1ccc(F)cc1Cl,inactive,–
COc1cc(CNc2ncc(-c3ccc(Cl)cc3)n2C)cc(OC)c1OC,"inconclusive: 35.5 µM [inhibitor, full curve]",–
CCOC(=O)C1CCN(Cc2ccc(Cl)c(Cl)c2)CC1,"inconclusive: 79.4 µM [inhibitor, partial curve, poor fit]",–
O=C(c1ccc(Cl)c(S(=O)(=O)N2CCCCCC2)c1)N1CCN(c2ccc(O)cc2)CC1,"inconclusive: 35.5 µM [inhibitor, partial curve]",–
CCN(CC(=O)Nc1ccc(C)c(S(=O)(=O)N(C)C)c1)Cc1ccccc1,"inconclusive: 15.8 µM [inhibitor, full curve]",–
O=C(c1cc(-c2ccco2)nn1-c1cccc(Cl)c1)N1CCCCC1,"inconclusive: 22.4 µM [inhibitor, full curve]",–
Cc1ccccc1CSc1nnc(-c2cccs2)n1Cc1ccco1,–,inactive: 19.6%
CCOC(=O)C1(CCc2ccccc2)CCN(C(=O)C2CCOCC2)CC1,"inconclusive: 44.7 µM [inhibitor, partial curve, poor fit]",–
COc1cc(C2NC(=O)NC3=C2C(=O)OC3)cc(OC)c1OC (centres undefined),–,inactive: -7.29%
Cc1nnc(SCC(=O)Nc2sccc2C#N)s1,–,inactive: 41.5%
CCN1CCN(C(=S)NCCc2ccccc2)CC1,"inconclusive: 50.1 µM [inhibitor, partial curve]",–
Cc1cc(C)c(-c2n[nH]c3c2C(c2ccccc2F)N(Cc2ccco2)C3=O)c(O)c1 (centres undefined),–,inactive: 19.5%
COC(=O)c1c(-c2cccnc2)csc1NC(=O)c1ccc2c(c1)OCO2,–,inactive: 9.08%
COc1cc(C)c(N)cc1C(C)C,"inconclusive: 15.8 µM [inhibitor, full curve]",–
CCc1cc(C(=O)N=Nc2c(O)[nH]c3ccc([N+](=O)[O-])cc23)c2ccccc2n1,"inconclusive: 50.1 µM [inhibitor, partial curve, poor fit]",–
CCN(CC)CCNC(=O)c1ccc(NC(=O)Cc2ccc(OC)c(S(=O)(=O)N3CCOCC3)c2)cc1,–,inactive: 31.3%
CCOc1ccc(CNC(=O)CSc2nnc(C)c3c(C)n(-c4ccc(Cl)cc4)nc23)cc1,–,inactive: 39%
CC1CCCCC1NCC#CCOc1ccc(Cl)cc1 (centres undefined),"inconclusive: 44.7 µM [inhibitor, partial curve]",–
O=C(CN1CCCC1)Nc1ccc(Cl)cc1C(F)(F)F,"inconclusive: 7.94 µM [inhibitor, full curve]",–
